Values joined by “and” are separate entries in the source; they are usually repeats but may differ in a detail not shown here. Equal values may be shown once.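 96-well plates; 48 h exposure; 5 concentrations. Endpoints by linear interpolation between flanking doses. Not reached: highest tested concentration assigned. At the GI50, growth is halved. Definition used: TGI = concentration required for complete inhibition of growth.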 Square brackets hold non-standard residues; d marks the D form. Peptide text beside a SMILES is read from it. * marks the point of attachment. NMeF = CN[CH](Cc1ccccc1)C(=O)O; NMeV = CN[CH](C(=O)O)C(C)C; Boc = CC(C)(C)OC(=O)*; OBn = c1ccc(CO*)cc1 A value given as a limit tells only on which side of the number the result lay.

The test system of this assay is NCI-H322M lung. The assay can be described thus: DTP human tumour cell line panel, 48 h.
`COc1cc(C2[C@H]3C(=O)N(c4ccc(Cc5ccc(N6C(=O)[C@@H]7ON(c8ccccc8)C(c8cc(OC)c(OC)c(OC)c8)[C@@H]7C6=O)cc5)cc4)C(=O)[C@H]3ON2c2ccccc2)cc(OC)c1OC` (stereo partly specified) returned a TGI above 100 µM. Same read-out and setting: for `COc1cc2c3c(cc(Cl)nc3c1OC)C(O)(CC(C)=O)C(=O)N2` (stereo unspecified) the value was above 100 µM. On to `Cn1cc(-c2csc(-c3cn(CCN4CCOCC4)c4ccc(F)cc34)n2)c2cccnc21`, for which the GI50 was 3.16 µM and the concentration for total growth inhibition (TGI) was found to be 15.4 µM.

Turning to `C1OCN2c3nonc3N3COCN4c5nonc5N1C2C43` (stereo unspecified), the TGI was above 100 µM. The same measure, in the same setting: to `CN(N)C(=O)NCCCl` belongs above 100 µM. On the same count and under the same terms, for `CCOC(=O)N(CC)c1c(C(F)(F)F)cc(-c2ccccc2)[nH]c1=O` the value was above 100 µM. For the compound `COc1cc2c(cc1OCCCCC(=O)Nc1ccc(-c3nc4ccccc4s3)cc1)N=C[C@@H]1CCCN1C2=O`, the GI50 was 2.81 µM and the TGI stood at 8.45 µM.

As to `NNC(=O)CC(=O)Nc1ccccc1F`, the TGI is above 100 µM.

Consider `N#Cc1cc2cc3c4c(c2oc1=O)CCCN4CCC3`, for which the TGI was above 100 µM. `CC(C)C(NC(=O)OC(C)(C)C)C(=O)N(C)C(Cc1ccccc1)C(=O)N(C)C(C(=O)N(C)C(C(=O)OCc1ccccc1)C(C)C)C(C)C` (stereo unspecified) (Boc-V[NMeF][NMeV][NMeV]-OBn; configuration not given here) displayed a total growth inhibition concentration (TGI) above 100 µM. Compound `O=C(CCc1cc(O)cc(O)c1)NCCc1ccc(O)c(O)c1` had a TGI above 100 µM. In turn, `COc1ccc2[nH]c(C(=O)N3CC(CCl)c4ccc([N+](=O)[O-])cc43)cc2c1` (stereo unspecified) had a total growth inhibition concentration (TGI) above 100 µM.

As to `CC1(C)Oc2ccc(Cl)cc2C12CC2`, the TGI was determined as 55.1 µM. Regarding `CC(C)(C)c1ccc(C(=O)N/N=C/c2ccc(O)cc2O)cc1`, the GI50 is 0.323 µM and the TGI stood at 12.4 µM. Take `Cn1c2ccccc2c2cc(-c3ccccc3)c3c(c21)C(=O)C=CC3=O`: the TGI came out at 53.9 µM. For the compound `O=C1OCC2=C1C(c1cccc(F)c1)c1cc3c(cc1N2CCO)OCCO3` (stereo unspecified), the GI50 is 0.337 µM and the TGI is above 50 µM.

Compound `CC[C@@]1(O)C(=O)OCc2c1cc1n(c2=O)Cc2c-1nc1ccccc1c2/C=N\NC(=O)C(N)CS` (stereo partly specified) had a TGI above 100 µM. The same measure, in the same setting: to `c1ccc(C(=NNc2nc3ccccc3[nH]2)c2ccccn2)nc1` belongs 1.95 µM. In turn, `O=C1c2cnccc2Cc2cccc3c2N1c1ccccc1S3` had a TGI above 100 µM. Same read-out and setting: to `O=C(c1ccc(Cl)cc1)N(C(=S)N1CCN(c2ccccn2)CC1)c1ccccc1` belongs above 100 µM. For the compound `CC(=O)c1ccc(NC(=O)/C(=N\NC(N)=O)C(C#N)CC(C)(C)C=O)cc1` (stereo unspecified), the TGI is above 100 µM.

Turning to `OCCc1cnco1`, the TGI was above 100 µM. Still for that read-out and setting: for `BrP(NC1CCCCCC1)(c1ccccc1)(c1ccccc1)c1ccccc1` the value was 34.4 µM. In the case of `CCN(CC)c1ccc(/C=C/C(=O)c2cccc(NS(C)(=O)=O)c2)cc1`, the GI50 is above 100 µM and the TGI is above 100 µM. `CCOC(OCC)C(CCc1ccccc1)c1c(N)nc(N)[nH]c1=O` (stereo unspecified) yielded a TGI above 100 µM. On the same count and under the same terms, for `N#CC1N(C(=O)c2ccc(F)cc2)c2ccccc2N1C(=O)c1ccc(F)cc1` the value was above 100 µM; for `CCN(CC)C(=O)c1c(N2CCOCC2)cc(N(CC)CC)oc1=O`, above 100 µM.

For the compound `Cc1cc(N(CCCNc2ccnc3cc(Cl)ccc23)Cc2cccs2)nc(Cl)n1`, the GI50 was 4.1 µM and the TGI was determined as 17.3 µM. On to `CN(C)CCCNC(=O)c1cc2c3ccccc3[nH]c2c2ncccc12`, for which the GI50 was 20.4 µM and the concentration for total growth inhibition (TGI) is 59 µM. In the case of `CC1=C(C(=O)Nc2ccccc2C)C(c2ccc(N(C)C)cc2)C(C(=O)Nc2ccccc2C)=C(C)N1`, the TGI is above 100 µM.

As to `Cc1cc2nc3ccc(N=Nc4ccc(N(C)C)cc4)cc3n(-c3ccccc3)c-2cc1=N`, the GI50 is 0.223 µM and the TGI turned out to be 1.78 µM. For `Cc1sc2nc(-c3ccccn3)c(/C=N/N=C(N)N)n2c1C` the same measures were 9.08 µM and 17.1 µM. For the compound `Nc1c(C(=O)Nc2cccc3ccccc23)sc2nc3c(cc12)CCCC3`, the GI50 is above 100 µM and the TGI was above 100 µM. Regarding `CC(C)C(/C=C/c1ccccc1)=N\NC(=O)N/N=C(/C=C/c1ccccc1)C(C)C`, the total growth inhibition concentration (TGI) is above 100 µM. As to `C/C1=C\CC[C@@](C)(O)[C@H]2C[C@H](CC/C(C)=C/CC1)C1(CC1)C(=O)O2`, the GI50 is 75.6 µM and the TGI is above 100 µM. On to `Cc1cc(=O)c2c(O)c3c(O)cc(O)c4c5c(O)cc(O)c6c(O)c7c(=O)cc(C)c8c1c2c(c34)c(c65)c78`, for which the GI50 was > 100 µM and 23.1 µM; the TGI is > 100 µM and 57.4 µM. Consider `O=C(N/C(=C\c1ccc([N+](=O)[O-])cc1)c1nc2[nH]c(=S)[nH]c(=O)c2[nH]1)c1ccccc1`, for which the TGI was above 100 µM.

`CC1(C)CCc2cc3c(cc2O1)OC(C)(C)C1c2c(ccc4c2CCC(C)(C)O4)OC31` (stereo unspecified): the TGI is above 100 µM. As to `O=C1Nc2ccccc2C12CC(c1ccccc1)=NN2` (stereo unspecified), the GI50 is 4.7 µM and the TGI was above 100 µM.

Compound `CCCCNC(=S)/N=C/c1c(O)c2ccccc2oc1=O` returned a TGI above 100 µM. Still for that read-out and setting: to `O=C(Nc1ccc2ccccc2c1)Nn1cnnc1` belongs above 100 µM; to `CC(NC(=O)C(C)C(=O)NCc1ccc(C(F)(F)F)cc1)C(N)=O` (stereo unspecified), above 100 µM; to `FC1CCN(C2(c3cccs3)CCCCC2)CC1`, above 100 µM. `COC(=O)C1(NC(=O)C(N)CC(=O)O)C(C)C1C` (stereo unspecified) had a TGI above 100 µM. Compound `COC1=NN2C(OC)(c3ccccc3)c3c(-c4ccccc4)sc(-c4ccccc4)c3C2(c2ccccc2)S1` (stereo unspecified) returned a TGI above 100 µM. In the case of `COc1ccc(C(=O)Nc2ncc(Cc3ccc(F)cc3)s2)cc1`, the GI50 was 0.392 µM and the TGI is above 100 µM. For `COc1cc(/C=C(\NC(=O)c2ccccc2)c2nc3ccc([N+](=O)[O-])cc3[nH]2)cc(OC)c1OC`, the TGI is above 100 µM. In turn, `COc1cc2ccc(CC#N)cc2cc1OC` returned a TGI above 100 µM. The same measure, in the same setting: to `Cn1c(=O)c(C(c2ccccc2)c2c(O)c3ccccc3n(C)c2=O)c(O)c2ccccc21` belongs above 100 µM.

On to `O=S(=O)(NC(=S)Nc1ccccc1)c1ccc(N2N=C3c4ccccc4CC3C2c2ccc(Cl)cc2)cc1` (stereo unspecified), for which the GI50 is 16.3 µM and the TGI is 50.7 µM. As to `COC(=O)c1[nH]nc(-c2ccccc2)c1N1CCCCC1`, the GI50 is 30.6 µM and the TGI was 63 µM. In turn, `O=C1Nc2ccccc2NC1C1OC(c2ccccc2)=CC1=O` (stereo unspecified) registered a TGI above 100 µM. The same measure, in the same setting: to `CCN(CC)C(=S)SNCCc1ccc(S(N)(=O)=O)cc1` belongs above 100 µM; to `COC(=O)C1=C(OC(=O)/C(=C/c2ccc(Cl)cc2)c2ccccc2)C(C(=O)OC)[C@@]2(O)[C@@H](C(=O)OC)[C@H](C)C[C@@H]1[C@@H]2C(=O)OC` (stereo partly specified), above 100 µM. `N=C1N=C(N)c2cc3c(cc21)SCCSCCCSCCS3` showed a TGI above 67.9 µM. The same measure, in the same setting: for `Cc1ccc(S(=O)(=Nc2ccccc2)C(C(C)C)C(C)(C)Cl)cc1` (stereo unspecified) the value was above 50 µM; for `CC1SC2=NC3=C(c4ccccc4C3=O)C(c3ccc(Br)cc3)N2C1=O` (stereo unspecified), above 100 µM.

In turn, `O=C(c1ccc(Cl)cc1)N1N=C(c2ccc(Cl)cc2)CC1(O)c1cc(F)c(Cl)cc1Cl` (stereo unspecified) showed a TGI of 56.7 µM. On the same count and under the same terms, for `CC(=O)Oc1ccc(OC(Oc2ccccc2)c2ccccc2)cc1` (stereo unspecified) the value was above 100 µM.

For `CN(C)c1nc(N(C)C)nc(N(C)CN(C)c2nc(N(C)C)nc(N(C)C)n2)n1`, the TGI is above 100 µM. In turn, `COc1cc(NCC(C#N)C#N)ccc1N=Nc1ccc([N+](=O)[O-])cc1` returned a TGI above 100 µM.

On to `COc1cc(C2c3cc4c(cc3C3OC(=O)C2C3CO)OCO4)cc(OC)c1OC` (stereo unspecified), for which the GI50 was 0.0562 µM and the TGI was above 100 µM. The compound `CNC1=C(C)C(=O)C(C)=C(C(C)(C)CC(=O)n2cc(F)c(=O)[nH]c2=O)C1=O` yielded a TGI above 100 µM. In turn, `C[C@]12CCC(=O)C=C1CC[C@@H]1[C@@H]2C(=O)C[C@@]2(C)[C@H]1CC[C@]2(O)C(=O)CO` came in with a TGI above 100 µM. For the compound `C=C1C(=O)[C@]23[C@H](O)[C@H]1CC[C@H]2[C@@]12CO[C@@]3(O)C[C@@H]1C(C)(C)CC[C@@H]2O`, the TGI was above 25 µM.

`CCC[CH2][Sn]1([CH2]CCC)[O]C(=O)C[S]1`: the GI50 is 4.57 µM and the concentration for total growth inhibition (TGI) came to 15.7 µM. `NC(=O)Nc1ccc2ncnc(Nc3ccc(Cl)cc3)c2c1`: the GI50 is 0.594 µM and the concentration for total growth inhibition (TGI) was above 25.8 µM. In the case of `O=C1C[C@H](c2ccccc2)C2(C(=O)c3ccccc3C2=O)[C@@H](c2ccccc2)C1`, the total growth inhibition concentration (TGI) was above 100 µM.

`COC(=O)C[C@H](COCc1ccccc1)NC(=O)C[C@H](COCc1ccccc1)NC(=O)C[C@H](COCc1ccccc1)NC(=O)OC(C)(C)C` showed a TGI above 100 µM. On the same count and under the same terms, to `O=C(NCCO)c1c(O)c2ccccc2[nH]c1=O` belongs above 100 µM. On the same count and under the same terms, to `O=C1c2ccccc2C(=O)N1C(=S)c1ccccc1` belongs above 100 µM.

On to `O=C(c1ccc(Cl)cc1)N(Cc1cccnc1)C(=S)N(Cc1cccnc1)C(=O)c1ccc(Cl)cc1`, for which the TGI is 87.4 µM.

As for `Clc1ccc(OCC2NC3C=CC32)cn1` (stereo unspecified), the TGI was above 100 µM. `CC(O)(c1ccccc1)c1nccc2ccccc12` (stereo unspecified) had a TGI above 100 µM.

On to `COc1cc(/C=C/C(=O)c2c(C)n([O-])c3cc(C)c(C)cc3[n+]2=O)cc(OC)c1OC`, for which the GI50 is 17.1 µM and the TGI is 37.6 µM.

With `COc1ccc(C2C(C(=O)O)=C(COC(C)=O)Oc3cc4c(cc32)OCO4)cc1` (stereo unspecified), the TGI is above 100 µM. With `NC1=CC(=O)C(=O)c2cccnc21`, the GI50 was 10.9 µM and the TGI worked out at 22.8 µM. In the same order, the values of `C[C@@H]1CN(Cc2ccc(/C=C/c3n[nH]c4ccc5nc(-c6cn[nH]c6C(F)(F)F)c6c(c5c34)CCCC6)cc2)C[C@H](C)O1` are 6.26 µM and 19.4 µM. With `COCC(=O)[C@]1(O)Cc2c(O)c3c(c(O)c2[C@@H](OC2CC(N)C(O)C(C)O2)C1)C(=O)c1c(OC)cccc1C3=O` (stereo partly specified), the TGI is 2.09 µM. For the compound `CCOC(=O)c1c(-c2[nH]c(C(=O)OCc3ccccc3)c(C)c2C(=O)OCC)[nH]c(C(=O)OCc2ccccc2)c1C`, the TGI was above 100 µM. On to `COc1ccc(/C=C/c2nc(N3CCOCC3)c3cc(F)c(F)cc3n2)cc1OC`, for which the GI50 is 60.1 µM and the total growth inhibition concentration (TGI) is above 100 µM. For `O=C(NN=C1CCCCC1)Nc1ccccc1Cl`, the TGI was above 100 µM.

For the compound `O=C1C2Cc3ccccc3CN2C(=O)N1CN1CCN(CN2C(=O)C3Cc4ccccc4CN3C2=O)CC1` (stereo unspecified), the TGI is above 100 µM.

Values taken from PubChem BioAssay (NCI).
